Laboratory results taken from PubChem BioAssay AID651820 (National Center for Advancing Translational Sciences (NCATS), 2012).
The campaign covered roughly 340,000 compounds. About 12,000 (3.5%) were called active. This list was built around the results that the source calls inconclusive (neither active nor inactive); the mix of calls is not that of the screen. The call rests on the fitted dose curve; in most records, active means well fitted inhibition curve with a large enough effect; inconclusive means small, poorly fitted or top-dose-only effect, or another doubt; inactive means no such curve, though single readings can be large or run the other way. No potency is given beside an inconclusive call; the fits are too rough.

Assay: qHTS Assay for Inhibitors of Hepatitis C Virus (HCV)
Settings: Huh7.5.1 HCVcc-Cre (HCVcc is cell-culture hepatitis C virus) infection, luciferase reporter, 44 h; series mostly up to 41.8 µM
How it was run: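 Cells seeded at 1,000/well and cultured 4 h, then compounds added followed by HCVcc-Cre virus (~0.5 moi). After 44 h further culture, luciferase substrate was added, plates held 15 min at room temperature, and luminescence read for 15 sec.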
Potency means the concentration at half of the fitted maximal effect; tags describe the fitted curve by direction and shape.

Structure (SMILES) | Potency
CCOC(=O)N1CCN(CC(=O)c2c(C)[nH]c3ccccc23)CC1 | inactive
COc1cccc(C2c3c(C)nn(-c4ccc([N+](=O)[O-])cc4)c3N=C3C(=O)Nc4ccccc4N32)c1 (stereo not given) | inconclusive [inhibitor, partial curve]
NC(=O)c1cc(Br)cc(C2CCCCC2)c1O | inconclusive [inhibitor, single point]
N#Cc1ccc(N2C(=O)[C@@H]3C(C(=O)c4ccc5ccccc5n4)=NN[C@@H]3C2=O)cc1 | inconclusive [inhibitor, full curve]
COc1ccc(S(=O)(=O)N2CCN(C(=O)c3cc(C4CC4)nn3-c3ccccc3)CC2)cc1OC | inconclusive [inhibitor, single point]
COc1cc(NC(=O)C[n+]2ccc(C(=O)c3ccccc3)cc2)cc(OC)c1 | inconclusive [inhibitor, partial curve]
O=C(CC1(O)C(=O)Nc2ccccc21)c1cccc(-n2cccc2)c1 (stereo not given) | inactive
O=C(CSc1nc2ccccc2c(=O)n1-c1ccc(Cl)cc1)N/N=C/C=C/c1ccccc1[N+](=O)[O-] | inconclusive [inhibitor, full curve, poor fit]
CCOC(=O)c1c(C)[nH]c(C(=O)CSc2nnc(CC(C)c3ccccc3)o2)c1C (stereo not given) | inconclusive [inhibitor, single point]
O=C(Nc1ccc(Br)cc1)c1cccn1-c1ncc(C(F)(F)F)cc1Cl | inconclusive [inhibitor, single point]
COc1ccc(N(C)S(=O)(=O)c2cccc(C(=O)NCC(c3ccco3)N3CCCC3)c2)cc1 (stereo not given) | inconclusive [inhibitor, single point]
COc1ccc(/C=N/Nc2ncnc3sc4c(c23)CCCC4)cc1O | active: 11.2 µM
Cc1cc(C)nc(SCc2nnc(SCc3ccc([N+](=O)[O-])cc3)n2Cc2ccco2)n1 | inconclusive [inhibitor, partial curve]
O=C(CCC(=O)N/N=C/c1cc(Cl)cc(Cl)c1O)NCc1ccccc1 | inconclusive [inhibitor, single point]
COc1ccc(NC(=O)COc2ccc(N(C)S(=O)(=O)c3ccc(Cl)cc3)cc2)cc1OC | active: 0.631 µM
COc1ccc(OC)c(-c2csc(NC(=O)c3ccc4c(c3)OCO4)n2)c1 | inconclusive [inhibitor, single point]
CN(C)CC(C)(C)CNC(=S)Nc1ccc(S(=O)(=O)N2CCOCC2)cc1 | inactive
COc1ccnc(Oc2ccc3ccccc3c2)c1C#N | inactive
CCc1ccccc1Nc1ncnc2ccccc12 | inconclusive [inhibitor, single point]
O=C(COc1ccccc1F)Nc1ccc(N2CCOCC2)cc1N1CCOCC1 | inactive
CCC(=O)N1CCN(c2ccc(NC(=O)c3cc4ccccc4o3)cc2)CC1 | inconclusive [inhibitor, single point]
CCc1nn2c(=O)cc(N3CCN(c4cc(C)nc5ccccc45)CC3)nc2s1 | inactive
CCCn1c(C)cc(C(=O)COc2ncnc3sccc23)c1C | inactive

Structure (SMILES) | Potency
COc1ccc(/C=N/OCC(=O)NC(c2ccccc2)c2ccccc2)cc1OC | active: 3.98 µM
O=C(Nc1cccc(F)c1)N1CC=C(c2ccc(Cl)cc2)CC1 | inactive
Cn1c(=N)n(CC(=O)c2ccc(Br)cc2)c2ccccc21 | active: 6.31 µM
CCOC(=O)CSc1nc(C)c2ccccc2n1 | inconclusive [inhibitor, single point]
Nc1c(C(=O)Nc2cccc(F)c2)nnn1-c1cccc(C(F)(F)F)c1 | inconclusive [inhibitor, full curve, poor fit]
CCN(CC)S(=O)(=O)c1ccc(C)c(NCC(=O)Nc2ccc(C#N)c(Cl)c2)c1 | active: 12.6 µM
CCn1nc(NC(=O)c2ccncc2)c2cc3ccc(C)cc3nc21 | inconclusive [inhibitor, partial curve, poor fit]
COc1cc2c(cc1OC)C(c1ccc(-c3cc(Cl)ccc3Cl)o1)=NCC2 | inconclusive [inhibitor, partial curve]
CCC1(C)Cc2c(sc3nnn(Cc4ccccc4Cl)c(=O)c23)CO1 (stereo not given) | inconclusive [inhibitor, single point]
COc1ccc(OC)c(-c2nnc(-c3ccc(C)o3)o2)c1 | inconclusive [inhibitor, partial curve]
CCn1c(=O)c(-c2nc3ccccc3[nH]2)c(O)c2ccccc21 | inconclusive [inhibitor, partial curve]
Cn1c(-c2ccc3c(c2)OCO3)cnc1NCc1ccccc1 | inconclusive [inhibitor, single point]
Cc1nc2c(c3c1[nH]c1ccccc13)C(O)CC(C)(C)C2 (stereo not given) | inconclusive [inhibitor, single point]
CCN(CC)Cc1cc(C(C)=O)ccc1OCC(C)C | inactive
O=C(NCc1cccnc1)c1ccc(COc2cccc3ccccc23)o1 | inconclusive [inhibitor, single point]
CCNc1nc(NCC)n2c(SC(C)C(=O)c3ccc(C)cc3)nnc2n1 (stereo not given) | inconclusive [inhibitor, single point]
CCN(CC)CCNc1ccnc2cc(Cl)ccc12 | active: 5.62 µM
CCN(CC)C(=O)Cn1c(=O)c2ccccc2n2c(=S)sc(-c3cccc(C)c3)c12 | active: 0.562 µM
Cc1ccc(C(O)P(=O)(OCCC(C)C)c2ccc(N(C)C)cc2)cc1 (stereo not given) | inactive
CCC(C)(C(=O)NC1CCCC1)N(C(=O)c1cnccn1)c1ccccc1 (stereo not given) | inactive
COC(=O)/C=C\C(=O)Nc1cccc([N+](=O)[O-])c1 | inconclusive [inhibitor, single point]
CCN(CC)CCCNC(=O)CSc1nc2c(c(C(F)(F)F)n1)CCc1ccccc1-2 | active: 15.8 µM
